Tested on: endogenous B2M (beta-2-microglobulin) gene
Assay: B2M protein expression by HLA antibody flow cytometry, dXR constructs (Example 1, Table 14)
Assay type: cell-based, human
Conditions: HEK293T cells, % of cells counted that were positive, biological triplicates
Text: dXR variant plasmids encoding constructs having the configuration of U6-gRNA+Ef1α-NLS-GGS-dCasX491-GGS-KRAB variant-NLS (dCasX491 refers to catalytically-dead CasX 491), were transiently transfected into HEK293T cells in an arrayed 96-well format. These constructs also contained a 2× FLAG sequence, as well as sequences encoding either a gRNA scaffold 174 (SEQ ID NO: 2238) having a spacer (spacer 7.37) targeting the endogenous B2M (beta-2-microglobulin) gene or a non-targeting control (spacer 0.0), which were all cloned upstream of a P2A-puromycin element on the plasmid. Four different effector domains were tested in addition to the “naked” dCasX491 (KRAB variant domains listed in Table 9; spacer sequences listed in Table 10; sequences of additional elements listed in Table 11). The corresponding protein sequences of the dXR molecule are listed in Table 13, and the generic configuration of the dXR molecule is illustrated in FIG. 38. […] Changes in gene expression were calculated by performing qPCR on the targeted gene and a housekeeping gene as reference. […] In addition to the wells used for RNA measurements, a separate set of wells was harvested seven days post-transfection and analyzed for B2M protein expression. Expression of B2M protein was determined by using an antibody that detects the B2M-dependent HLA protein complex on the cell surface. […]

B1: dXR4: dCasX491 fused to ZNF334 KRAB domain (SEQ ID NO: 340) (protein)
chain: KMKKFQIPVSFQDLTVNFTQEEWQQLDPAQRLLYRDVMLENYSNLVSVGYHVSKPDVIFKLEQGEEPWIVEEFSNQNYPD
% cells expressing B2M protein (B2M-targeting spacer 7.37): 19.80% | % cells expressing B2M protein (non-targeting spacer 0.0): 98.23%

Reference: patent publication US20240392271A1, “ENGINEERED CASX REPRESSOR SYSTEMS” (Scribe Therapeutics Inc., priority 2021, published 2024)
